Values marked as one replicate rest on one cluster of the flow cell; about a third of the high ones do not repeat.

This data set deals with ATP. Nature of the data set: switch fluorescence ratio, 500 uM ATP over buffer (Cy3 cluster intensity, sum of 5 cycles each) (fold (ratio)); higher = stronger signal-on switching upon ATP binding; sequences stand for … in TCGTCGGCAGCGTCAGATGTGTATAAGAGACAGTTTTTTTTTTTTTTTTTTTTTTTTT…TC. Particulars: aptamer strand: ATP DNA aptamer (quencher-CACCTGGGGGAGTATTGCGGAGGAAGG + anchor), 100 nM annealed; ATP concentration: 500 uM; one replicate. In a few lines: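 Five buffer/ATP imaging cycles were run on Cy3-labelled switching-strand clusters on a modified Illumina MiSeq flow-cell, with NaOH stripping and re-annealing between cycles. In each cycle, clusters annealed to 100 nM quencher-labelled ATP aptamer were imaged in selection buffer, then after 15 min with 500 uM ATP at 22 °C. Per cluster, the fluorescence ratio is summed target-cycle over summed buffer-cycle Cy3 intensity, averaged per switch-domain sequence. Only clusters within 100-1000 RFU were kept.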
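Further: ATP exposure 15 min at 22 °C before imaging.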

Consider CAGAAGTCGG, for which the switch fluorescence ratio was determined as 0.982.
The value for ACGGGGCAGC was 1.03; that for GATCTGCCA was 1.03; that for AGTTGTAGCA was 0.991.
As to CTACTTTAGG, the switch fluorescence ratio amounted to 0.983.
CAGCATCAGG: the switch fluorescence ratio was 1.07.
Turning to CTTCTTTCGC, the switch fluorescence ratio amounted to 2.63.
Consider AGGTCCTTGC, for which the switch fluorescence ratio came to 1.17.
The value for GAAGATCTAG was 1.02.
As for GGTGCGTGTC, the switch fluorescence ratio was 1.11.
CGTATATCGA: the switch fluorescence ratio came out at 0.983.
The value for GTTGATCCTG was 0.949; that for ATACAAATCC was 1; that for AAACCGAGT was 1.02.
With TTATACATTC, the switch fluorescence ratio is 1.01.
With CATAAAAGAG, the switch fluorescence ratio was 1.02.
As for TTAGGCCACG, the switch fluorescence ratio was 0.993.
On to ACTAAGGTTA, for which the switch fluorescence ratio amounted to 1.01.
Take CTGTGTAGGA: the switch fluorescence ratio was found to be 1.01.
With GAGGAATAAC, the switch fluorescence ratio is 1.07.
In the case of TCTTAACGTT, the switch fluorescence ratio is 0.968.
TGGTGCATCG: the switch fluorescence ratio amounted to 0.985.
As for AATCCGTTGA, the switch fluorescence ratio worked out at 1.
Take TCTCTCAGGG: the switch fluorescence ratio was 1.07.
For the sequence AGATGTGTCG, the switch fluorescence ratio amounted to 0.975.
Regarding TTTACGGGC, the switch fluorescence ratio was 1.09.
The value for CGGCCTGACC was 1.06; that for CGCAAATTTT was 1.12.
For ATATGGGATT, the switch fluorescence ratio is 1.
In the case of TGGGCGCCTG it was 1.08.
In the case of GCGTTCTGAC it was 1.01; in that of CAAAGGAGAA, 0.999; in that of TTGTTGACTA, 0.975.
In the case of GTGATAAACT, the switch fluorescence ratio worked out at 1.03.
For the sequence TGGATGATGT, the switch fluorescence ratio is 0.986.
In the case of AACTGCATGT, the switch fluorescence ratio is 1.02.
As for TGGGAGGTGA, the switch fluorescence ratio is 1.
TTACGTAGGA: the switch fluorescence ratio turned out to be 1.01.
Regarding TAGGGAACGA, the switch fluorescence ratio was 1.03.
TGACGTAAGC: the switch fluorescence ratio is 1.29.
For the sequence CCTATCAGAG, the switch fluorescence ratio turned out to be 1.02.
Take GTTGTCGCTG: the switch fluorescence ratio was found to be 0.998.
For the sequence TATGTAGACT, the switch fluorescence ratio came to 0.989.
As to GCCGATTGTT, the switch fluorescence ratio is 0.975.
The value for ATCTCAGCTG was 0.989; that for CGAACCAGCT was 1.06; that for AAGAAAGGCG was 1.02.
Regarding ACTCGTCGTA, the switch fluorescence ratio was 1.
Turning to TTAACTGGCA, the switch fluorescence ratio is 1.
In the case of AGCGTATGAG, the switch fluorescence ratio is 0.988.
Regarding GAAGGGAAGC, the switch fluorescence ratio came to 0.977.
Regarding CATGGGAAG, the switch fluorescence ratio worked out at 0.981.
With CGTTAAGTCC, the switch fluorescence ratio amounted to 1.12.
With TGAAACTCTG, the switch fluorescence ratio was found to be 1.11.
Consider TTCTTTCGTA, for which the switch fluorescence ratio is 1.02.
With TTAGCTGTG, the switch fluorescence ratio was 0.965.
The value for GCGGCAAGTG was 1.05; that for GACTACAGCT was 1.04.
For ACATATGGT, the switch fluorescence ratio amounted to 1.07.
For GTAATAACGA, the switch fluorescence ratio amounted to 1.05.
TCTTTTCTCA: the switch fluorescence ratio turned out to be 1.05.
The value for GACTTAGTCG was 1.06; that for AGAAAGACGT was 1.
Regarding GGGTCAATTA, the switch fluorescence ratio was determined as 1.02.
Turning to GCCAAGGCGG, the switch fluorescence ratio was found to be 0.998.
As for GCTGATAGGT, the switch fluorescence ratio came to 0.971.
Regarding ATTGAGCCGC, the switch fluorescence ratio worked out at 1.03.
For the sequence CACCTCTTGA, the switch fluorescence ratio worked out at 0.988.
In the case of CAAATTAGTG it was 0.972; in that of GAGGGATGTG, 0.973.
AGTAGGAATA: the switch fluorescence ratio turned out to be 1.03.
In the case of TCGTGGGAA it was 0.971; in that of CAAAGTCATA, 1.01.
In the case of CGACGCAGTT, the switch fluorescence ratio stood at 4.89.
For TTTACAGAAA, the switch fluorescence ratio turned out to be 1.
For AATCCCTACA, the switch fluorescence ratio was 1.04.
Regarding GGGTGCGCCT, the switch fluorescence ratio was determined as 1.07.
GTTCGCGTAA: the switch fluorescence ratio was 1.05.
On to GCTGGAATGA, for which the switch fluorescence ratio came out at 0.972.
On to TAAGGTAACT, for which the switch fluorescence ratio was determined as 0.994.
The value for GCCCTATTT was 0.998; that for TTGCTGGAGG was 0.979.
Turning to CGCTGGGTTG, the switch fluorescence ratio was determined as 1.03.
As for TTTGGCTTCC, the switch fluorescence ratio stood at 2.27.
Consider GCAGACTAGA, for which the switch fluorescence ratio came to 1.01.
In the case of AAAAAACAAC, the switch fluorescence ratio amounted to 1.07.
In the case of AGGCAATGGG it was 1.04.
With TTGCTCTGCG, the switch fluorescence ratio was 1.1.
CCTATGGTCT: the switch fluorescence ratio amounted to 1.03.
Turning to GAGTTCGTGT, the switch fluorescence ratio stood at 0.98.
With CGTCCCTTCT, the switch fluorescence ratio is 1.02.
Turning to GATGCTGTCA, the switch fluorescence ratio came to 1.03.
As for GTCGGATATA, the switch fluorescence ratio turned out to be 0.94.
Take CTGGGCGAGA: the switch fluorescence ratio was 1.02.
GAATTGTATC: the switch fluorescence ratio was found to be 1.01.
Consider TTACTTTGCA, for which the switch fluorescence ratio came to 1.07.
Turning to GTCGTGGCAT, the switch fluorescence ratio amounted to 1.02.
Consider GCATTTGAG, for which the switch fluorescence ratio was found to be 0.959.
As to TGCACATGAA, the switch fluorescence ratio is 1.04.
As to CCGTCCCCGC, the switch fluorescence ratio was determined as 3.89.
Turning to ATAGTTTAGC, the switch fluorescence ratio worked out at 0.989.
Take GTGGGGTGGT: the switch fluorescence ratio amounted to 0.993.
CGAAAGAGGC: the switch fluorescence ratio was determined as 1.03.
GTTTCCAAGT: the switch fluorescence ratio was 1.01.
In the case of GATATCGAGG it was 0.993.
In the case of CGTCAGACGG it was 0.978; in that of CGAGTGATTT, 1.57; in that of TAAAAAGCGT, 0.977.
Turning to GAGCGACTGG, the switch fluorescence ratio stood at 1.02.
Take CACCGACTAA: the switch fluorescence ratio amounted to 1.12.
For GATTATTACG, the switch fluorescence ratio came to 1.02.
In the case of TCCTCTTTGG it was 1.03.
As for TGCCCCACAC, the switch fluorescence ratio stood at 1.09.
The value for CCACTGATTG was 0.993.
GGGCTCACAG: the switch fluorescence ratio came out at 0.993.
As for GGACGCCGGA, the switch fluorescence ratio amounted to 1.03.
In the case of CACTGAGGCG it was 1.07; in that of TCCCTACTTA, 1.01; in that of AATGGGCCCG, 0.977.
The value for TAACTCGATA was 0.955.

Source of the values: the supplement of paper PMC10126150.
